The whole screen tested about 410,000 compounds, of which about 6,400 (1.6%) were called active. The shares of active, inactive and inconclusive entries below differ from those in the screen. The call rests on the fitted dose curve; in most records, active means well fitted inhibition curve with a large enough effect; inconclusive means small, poorly fitted or top-dose-only effect; inactive means no such curve, though single readings can be large or run the other way. Potencies of inconclusive entries are doubtful fits and often do not repeat.
Molecular target: Glucagon-like peptide 1 receptor (Homo sapiens) (UniProt P43220)
Experiment: qHTS of GLP-1 Receptor Inverse Agonists (Inhibition Mode); further: nearly all actives have a fitted effect of over 55% in size
Settings: HEK293 GLP-1R CRE-luciferase, luminescence, 24 h, GLP-1R form is constitutively active; activity change, negative = inhibition: at 38.3 µM (top of the series) unless noted
How it was run: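 Stable HEK293 clone (constitutively active GLP-1R + cAMP-response luciferase); 200 cells/uL plated, 12 h pre-culture, compound 24 hr, 37 deg C/5% CO2; detection reagent 12 min RT; luminescence.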
On the % scale 0 is the no-effect control and ±100 the full control effect; potency means the concentration at half of the fitted maximal effect; tags describe the fitted curve by direction and shape.

Sequence of UniProt P43220 (P43220 whole entry, looked up): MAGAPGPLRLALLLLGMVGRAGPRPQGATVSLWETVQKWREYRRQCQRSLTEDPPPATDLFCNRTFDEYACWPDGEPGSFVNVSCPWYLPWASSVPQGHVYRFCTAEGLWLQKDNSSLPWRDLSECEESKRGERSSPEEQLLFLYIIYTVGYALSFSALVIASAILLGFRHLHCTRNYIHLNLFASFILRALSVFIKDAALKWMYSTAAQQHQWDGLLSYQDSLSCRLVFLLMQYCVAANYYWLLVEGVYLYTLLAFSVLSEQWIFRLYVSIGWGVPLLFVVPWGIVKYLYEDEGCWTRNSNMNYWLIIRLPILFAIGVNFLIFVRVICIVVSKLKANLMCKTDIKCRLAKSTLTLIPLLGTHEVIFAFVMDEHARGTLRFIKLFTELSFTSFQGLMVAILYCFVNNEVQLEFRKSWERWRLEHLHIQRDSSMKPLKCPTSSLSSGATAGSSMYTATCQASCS

Potency, inconclusive:
CC1CCCN(CC(O)COc2ccc(-c3ccccc3)cc2)C1 (configuration not stated) 14.1 µM [inhibitor, partial curve, poor fit], C=CCC[C@H](CCCCC)OC(=O)/C=C/[C@H](O)[C@@H](O)C[C@H](O)CC=C 15.8 µM [inhibitor, single point], OC1(Cc2cc(-c3ccccc3)no2)CCN(CCCc2ccccc2)CC1 20 µM [inhibitor, partial curve, poor fit], COc1ccc(S(=O)(=O)N2CCCC2)c(C)c1C 10 µM [inhibitor, partial curve, poor fit], COc1ccc(-c2nc(SCC(=O)Nc3ccc4c(c3)OCCO4)c(-c3ccccc3)[nH]2)cc1 28.2 µM [inhibitor, single point], Cc1ccc(OCC(=O)N2CCc3ccccc32)cc1 28.2 µM [inhibitor, single point], COC(=O)c1ccccc1NC(=O)C1=C(C)C(=O)OC12CCC(C)CC2 (configuration not stated) 28.2 µM [inhibitor, single point], COc1cccc(C#CC2=CC(=O)CC(C)(C)C2)c1 28.2 µM [inhibitor, single point], CCCCN(CC(=O)Nc1cccc(S(=O)(=O)N2CCCC2)c1)Cc1nc2ccccc2c(=O)[nH]1 12.6 µM [inhibitor, single point], COc1ccc2c(c1)c(=O)c(C(=O)c1ccccc1)cn2Cc1ccccc1 0.447 µM [inhibitor, full curve, poor fit], CCCCNC(=O)c1c(CSc2ccc(Cl)cc2)noc1C(=O)NCc1ccccc1 14.1 µM [inhibitor, single point], CCSc1nn(CC(=O)Nc2cccc(Cl)c2)c(N)c1S(=O)(=O)c1ccc(OC)cc1 11.2 µM [inhibitor, single point], COc1ccc(S(=O)(=O)N2N=C(c3cccc(NS(C)(=O)=O)c3)CC2c2ccco2)cc1 (configuration not stated) 28.2 µM [inhibitor, single point], COc1cccc(C(NC(C)=O)c2nc(-c3cccc(C(C)C)c3)cs2)c1 (configuration not stated) 28.2 µM [inhibitor, single point]

Activity change, negative = inhibition, inactive:
Cc1ccc(-n2nc3c(=O)n(CCCC(=O)NC(C)c4ccccc4)nc(C)c3c2C)cc1 (configuration not stated) -23.4%, COc1ccccc1Cn1cc(C(=O)c2ccc(C)cc2)c(=O)c2cc(F)cc(F)c21 4.92%, Cc1ccc(S(=O)(=O)N2CCC(=O)CC2)cc1 1.42%

Reference: PubChem BioAssay AID624417 (National Center for Advancing Translational Sciences (NCATS), 2012)
